# PubChem BioAssay AID504706 (National Center for Advancing Translational Sciences (NCATS), 2011)
# Out of some 320,000 compounds screened, about 200 (0.062%) were called active. Inconclusive means that the source gave no clear call. Such entries were picked first, then a sample of the others. The call rests on the fitted dose curve; in most records, active means well fitted activation curve with a large enough effect; inconclusive means small, poorly fitted or top-dose-only effect; inactive means no such curve, though single readings can be large or run the other way. Potencies of inconclusive entries are left out as doubtful fits.
# Assay: qHTS assay for re-activators of p53 using a Luc reporter; further: nearly all actives have a fitted effect of over 45% in size; on activity change, positive = activation: % of control where 0% means no effect
# Conditions: H1299 p53-A138V BP100-luciferase reporter, luminescence, 24 h; series mostly up to 92.2 µM; activity change, positive = activation: at the top concentration
# From the text: The p53 tumor suppressor plays a key role in suppression of tumorigenesis and in human carcinogenesis. It is frequently found inactivated in human cancers, mainly by point mutation. These point mutations are found in a wide variety of human cancers and a majority of them affect the DNA binding domain of the protein. The point mutations either alter native p53 conformation or abolish DNA contact. Additionally, cancer cells with p53 mutations are more resistant to chemo-radiation therapies. In order to find activators to reactivate this important protein, a cell-based screen for p53-dependent luciferase-reporter expression was developed. A p53-null H1299 lung cancer cell line was stably co-transfected with a temperature sensitive p53 mutant, p53-A138V, and a p53-responsive BP100-luciferase reporter. This cell model has previously been characterized in a gene chip profiling experiment for p53 activation. By lowering the culture temperature from 37 deg C (mutant p53 conformation) to 32 deg C (w.t. p53 conformation), a 30-60 fold increase in activation of luciferase activity is observed. At assay temperate, 37 deg C, basal reporter expression is very low and after the addition of detection reagent, a luminescent read-out is carried out. NIH Chemical Genomics Center [NCGC] NIH Molecular Libraries Probe Production Centers Network [MLPCN] MLPCN Grant: DA031088-01A1 Assay Provider (PI): Yi Sung, University of Michigan at Ann Arbor
# 5ul of 1000 cells per well are dispensed in all wells except column 4, into white solid-bottom TC-treated Kalypsys plates. The cells are kept in Opti-MEM and supplemented with 10% FBS and dispensed using a Multidrop (Thermo). Then using the Kalypsys pin-tool, 23nl of compounds are pinned. The compounds are starting concentration at 10mM, with 1:5 dilution, 4 points, and the control compound nocodazole is pinned in column 1 at 25mM, 1:3 dilution, in duplicate, 25mM nocodazole is pinned in column 2. Please note, all concentrations are working concentrations. 5ul of 1pM purified luciferase enzyme is dispensed using the Kalypsys dispenser in column 4. Plates are incubated for 24 hrs at 37 deg C, 5% CO2, and 95% humidity. Then 4ul of the detection reagent Amplite (ABD Bioquest) is added using the Kalypsys dispenser. Plates are incubated for 10 min at ambient room temperature and are then read on the ViewLux (Perkin Elmer) using a clear filter for a luminescent read-out.
# Potency means the concentration at half of the fitted maximal effect; tags describe the fitted curve by direction and shape.
Structure (SMILES),Potency,"activity change, positive = activation"
CC(/C=N/Nc1nc(C)cc(C)n1)=C\c1ccc(C(C)C)cc1,"inconclusive [activator, partial curve, poor fit]",
CC1CCc2nc(NC(=O)CN3CCN(Cc4ccc5c(c4)OCO5)CC3)sc2C1 (stereo unspecified),"inconclusive [activator, single point]",
N#C/C(=C(/O)c1ccc([N+](=O)[O-])cc1)c1nc2ccccc2[nH]1,,inactive: 5.58%
O=C(NCCC1CCCCN1S(=O)(=O)c1ccc(F)cc1)C(=O)NCc1ccncc1 (stereo unspecified),,inactive: -1.67%
Cc1cccc(N2CN(Cc3cccnc3)CNC2=S)c1C,,inactive: 2.58%
CCC/C=N/NC(=O)c1cccc(Br)c1,"inconclusive [activator, partial curve]",
CCOC(=O)N1CCN(c2nc(-c3ccc(F)cc3)cs2)CC1,"inconclusive [activator, full curve, poor fit]",
Oc1ccc(CNc2ccccc2)c2cccnc12,,inactive: 3.32%
Fc1ccc(C(CCCn2nnc(-c3cccnc3)n2)c2ccc(F)cc2)cc1,,inactive: -2.05%
O=C(CN1CCOCC1)Nc1ccc(-c2nc3ccccc3[nH]2)cc1,,inactive: 15.8%
NNc1nc(-c2ccccc2)nc2sc3c(c12)CCCC3,"inconclusive [activator, partial curve, poor fit]",
O=C(COc1ccc2c(c1)OCO2)Nc1cccc(F)c1,"inconclusive [activator, full curve, poor fit]",
CCOC(=O)Cc1csc(NC(=O)Nc2ccccc2)n1,"inconclusive [activator, partial curve, poor fit]",
NNc1nc2ccc(Cl)cc2s1,"inconclusive [activator, single point]",
COc1ccc(C(=O)n2nnc3ccccc32)cc1Br,"inconclusive [activator, partial curve, poor fit]",
CCN(CC)c1ccc2cc(C(C)=O)c(=O)oc2c1,"inconclusive [activator, single point]",
CCC(=O)Nc1ccc(NC(=O)CSc2nnnn2-c2ccc(OC)cc2)cc1,"inconclusive [activator, partial curve, poor fit]",
Cc1ccn2c(=O)nc(SCC(=O)c3ccccc3)nc2c1,"inconclusive [activator, partial curve, poor fit]",
Cc1ccc(C(CNC(=O)Nc2ccc(Cl)cc2)N2CCN(C)CC2)cc1 (stereo unspecified),,inactive: 2.59%
Cc1ccc(OCC(=O)c2cc(C)n(C)c2C)c([N+](=O)[O-])n1,"inconclusive [activator, partial curve, poor fit]",
COc1ccc([C@H]2CC(=O)C=C(c3ccc(OC)cc3OC)C2)cc1,"inconclusive [activator, partial curve, poor fit]",
c1ccc(N2CCN(c3nc4cc5c(cc4s3)OCCO5)CC2)cc1,"inconclusive [activator, partial curve, poor fit]",
Cc1ccc(C(=O)Oc2cc(C)n(C)c(=O)c2)cc1,,inactive: 7.41%
N#CCC(=O)N/N=C\c1ccccc1OC/C=C/c1ccccc1,"inconclusive [activator, full curve, poor fit]",

Structure (SMILES),Potency,"activity change, positive = activation"
Cc1ccccc1-c1cc(C(=O)NCc2cccc(Br)c2)n(CC2CC(c3cccnc3)=NO2)n1 (stereo unspecified),,inactive: -5.58%
Cc1c(C(=O)N(C)C)c2ccc(Cl)cc2n1O,,inactive: 1.27%
COc1ccc2nc3oc(C(=O)N4CCN(c5cccc(C(F)(F)F)c5)CC4)cc3cc2c1,"inconclusive [activator, partial curve, poor fit]",
COc1ccc(NC2=CC(c3cccc(OC)c3)N(c3ccc(OC)cc3)C2=O)cc1 (stereo unspecified),"inconclusive [activator, single point]",
Cn1cccc1/C=N/n1c(-c2ccco2)n[nH]c1=S,,inactive: -6.1%
O=C(COc1ccc(F)cc1Cl)NC1CCCCCC1,"inconclusive [activator, full curve, poor fit]",
Cn1c(O)c(C=Nc2ccc(Br)cc2)sc1=O,"inconclusive [activator, single point]",
CS(=O)(=O)N1CCC(C(=O)Nc2cccc(Cl)c2)CC1,,inactive: -3.34%
COc1ccc(OCC(=O)Nc2nc3ccccc3[nH]2)cc1,"inconclusive [activator, partial curve, poor fit]",
Cc1cccc(OCCCSc2nc3ccccc3[nH]2)c1,,inactive: 5.03%
CC1(C)CC(=O)C=C(c2ccc(-c3ccccc3)cc2)C1,"inconclusive [activator, full curve, poor fit]",
CCOc1ccc2nc(N3CCCC(C(=O)NCCCN4CC(C)CC(C)C4)C3)sc2c1 (stereo unspecified),"inconclusive [activator, partial curve, poor fit]",
c1cc2c(cc1-c1[nH]ncc1CN1C[C@H]3CC[C@H]1C3)OCO2,,inactive: -4.26%
CCN(c1ccccc1)c1ncnc2c1cnn2-c1ccccc1,"inconclusive [activator, full curve, poor fit]",
CCc1nc2ccc(C(=O)NCCc3ccco3)cc2nc1CC,"inconclusive [activator, single point]",
Cc1ccc2c(c1)NCC(C(=O)NC1CCC(C)CC1)O2 (stereo unspecified),"inconclusive [activator, partial curve, poor fit]",
COc1ccc(/C=C/C(=O)O)cc1S(=O)(=O)NC1CCS(=O)(=O)C1 (stereo unspecified),"inconclusive [activator, single point]",
CCc1c(C(=O)Nc2ccccc2C(N)=O)csc1C,"inconclusive [activator, partial curve, poor fit]",
O=C(CCN1CCN(Cc2ccccc2)CC1)Nc1ccc(OCc2ccccc2)cc1,"inconclusive [activator, single point]",
CCN(CC)S(=O)(=O)c1cccc(C(=O)N/N=C/c2ccc([N+](=O)[O-])o2)c1,,inactive: -6.85%
COc1ccc2c(c1)CC/C(=C\C=C\c1ccccc1)C2=O,"inconclusive [activator, full curve, poor fit]",
c1ccc2c(c1)oc1c(N3CCN(Cc4ccc5c(c4)OCO5)CC3)ncnc12,"inconclusive [activator, partial curve, poor fit]",
COc1cc2cc(C(=O)O)[nH]c2c(OC)c1OC,,inactive: 0.129%
Cc1ccc(S(=O)(=O)n2c3ccc(Cl)cc3c3nc(C)sc32)cc1,"inconclusive [activator, partial curve, poor fit]",

Structure (SMILES),Potency,"activity change, positive = activation"
COCCn1c(C)cc(C(=O)COC(=O)c2n[nH]c3ccccc23)c1C,,inactive: -2.15%
Cc1cc(F)ccc1NC(=S)NC1CCCC1,,inactive: 0.335%
Cc1ccc2c(c1)-c1nc3ccccc3cc1C2=NC1CCCCC1,"inconclusive [activator, full curve, poor fit]",
CCc1ccc(N2CSC3=C(C#N)C(c4cccs4)CC(=O)N3C2)cc1 (stereo unspecified),"inconclusive [activator, partial curve, poor fit]",
Cc1nc2ccc(C(=O)OCc3ccccc3Br)cc2nc1C,"inconclusive [activator, partial curve, poor fit]",
NNc1nc2c(-c3cccc(C(F)(F)F)c3)nnn2c2ccccc12,,inactive: 16.6%
CCCOc1ccc(C(=O)NCc2ccco2)cc1,"inconclusive [activator, partial curve, poor fit]",
Oc1ccc(Br)cc1-c1nc2cnccn2c1NC1CCCC1,,inactive: -12.1%
Cc1ccc(N2CC(C(=O)NCC3CCCO3)CC2=O)cc1Cl (stereo unspecified),,inactive: 1.34%
CN(C)/C=C1\C(=O)N(c2ccc(Cl)cc2)CS1(=O)=O,"inconclusive [activator, partial curve, poor fit]",
CCOC(=O)c1sc(NC(=O)c2cccnc2)c(C#N)c1C,"inconclusive [activator, partial curve, poor fit]",
CCOC(=O)c1[nH]c(C)c(C(=O)c2cc(F)ccc2F)c1C,"inconclusive [activator, single point]",
c1ccc(-c2noc(COc3ccc4c(c3)OCO4)n2)cc1,"inconclusive [activator, full curve, poor fit]",
Nc1ccc2oc(-c3ccccc3Cl)cc(=O)c2c1O,"inconclusive [activator, partial curve, poor fit]",
CC1=CC(C)(C)N=C(Nc2ccc(C)cc2)S1,"inconclusive [activator, full curve, poor fit]",
CCOC(=O)c1ccccc1NC1c2ccccc2C(=O)N1c1cc(C)ccn1 (stereo unspecified),,inactive: -6.5%
COc1ccc(-c2noc(Cc3ccccc3OC)n2)cc1,"inconclusive [activator, partial curve, poor fit]",
COc1cccc(-c2cc(C(=O)Nc3cc(C)n(Cc4ccc(Cl)cc4)n3)no2)c1,,inactive: -0.0855%
Cc1ccc(NC(=O)CSc2nc3ccccc3c(=O)n2CCCN2CCCCC2)cc1Cl,,inactive: 8.62%
CCN1CCCC1CN(Cc1cc2c(C)cc(C)cc2[nH]c1=O)C(=O)NC1CCCCC1 (stereo unspecified),"inconclusive [activator, full curve, poor fit]",
O=C(N/N=C/c1ccccc1)NC1CCCCC1,"inconclusive [activator, partial curve, poor fit]",
N#CCSc1nc(-c2ccccc2)cs1,"inconclusive [activator, single point]",
COc1cc(N2CCCC2)c(OC)cc1/C=C(/C#N)c1ccc(F)cc1,"inconclusive [activator, single point]",
